The assay can be described thus: qHTS Assay for Lipid Storage Modulators (AID 1519). The following applies: Drosophila S3 cells, BODIPY lipid droplet/cell ratio, laser cytometry, cells loaded with oleic acid. The method in brief:
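Cells seeded at 5,000 per well were treated with compounds over a concentration series and loaded with oleic acid (400 uM, as added). Lipid droplet fluorescence (488 nm excitation, 500-530 nm channel) was read by laser-scanning cytometry and normalized to 20 uM Triacsin C.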

Where [1] appears, read: measured here: cell count channel max response.
Where [2] appears, read: measured here: cell number channel AC50.
[3] abbreviates: measured here: lipid (BODIPY) channel AC50.
Setting [4] is: measured here: lipid channel max response.

The other results are listed elsewhere or left out. Shown are side measurements of this screen, not its main read-out; they come without a call. Compounds called inactive in the main read-out are mostly missing here. The note in brackets gives the kind of curve behind each potency; many fits are weak.

Drawing on PubChem BioAssay (NCATS), this text covers max response and AC50 for 19 compounds.
Tags tell the direction and shape of the fitted curve.

Usually AC50 stands for the concentration giving half of the maximal activity seen. With `Cn1c(=O)c(-c2cccc(Cl)c2)nc2cncnc21`, the max response reads like this: under setting [1], 8.16%; under setting [4], 19.8%. The AC50 is 1410 nM [rising, full curve, poor fit] under setting [2] and 1410 nM [rising, full curve] under setting [3].

For `Cc1nc2ccc(NC(=O)Nc3ccnc4cccnc34)cc2o1`, the max response reads like this: under setting [1], 74.7%; under setting [4], 92.4%. In addition, the AC50 under setting [2] was 2000 nM [rising, full curve] and the AC50 under setting [3] is 1780 nM [rising, full curve].

On to `Cc1cnc(CNc2nc(-c3ccc4c(c3)OCO4)nc3ccccc23)cn1`, for which the max response under setting [1] stood at 16.6% and the max response under setting [4] is 31.4%. For the same compound, the AC50 reads like this: under setting [2], 35.5 nM [rising, full curve]; under setting [3], 708 nM [rising, full curve, poor fit].

With `OC[C@@H]1O[C@@H](n2cnc3c(NC4CCCC4)ncnc32)[C@H](O)[C@H]1O`, the max response reads like this: under setting [1], 30.2%; under setting [4], 38.7%. Further, the AC50 by setting is: under setting [2], 31600 nM [rising, single point]; under setting [3], 31600 nM [rising, single point].

Consider `OC[C@H]1O[C@H](n2cnc3c(NC4CCCC4)nc(Cl)nc32)[C@@H](O)[C@@H]1O`, for which the max response under setting [1] worked out at 33.2% and the max response under setting [4] worked out at 45.7%. The half-maximal activity concentration (AC50) by setting is: under setting [2], 17800 nM [rising, partial curve, poor fit]; under setting [3], 15800 nM [rising, partial curve, poor fit].

Consider `COc1cccc(-c2nccc(NCc3cccnc3)n2)c1`, for which the max response under setting [1] is 20.8% and the max response under setting [4] is 23.2%. For the same compound, the AC50 reads like this: under setting [2], 355 nM [rising, full curve, poor fit]; under setting [3], 501 nM [rising, full curve, poor fit].

`C[C@@]12CCC(OC(=O)c3ccccc3)CC1CCc1ccccc12` (stereo partly specified): the max response reads like this: under setting [1], 32.8%; under setting [4], 39.2%. In addition, the concentration at half-maximal activity (AC50) was 15.8 nM [rising, full curve, poor fit] under setting [2] and 20000 nM [rising, partial curve] under setting [3].

For the compound `COc1ccc(-c2nc(C(=O)N3CCN(C)CC3)sc2-c2ccc(OC)cc2)cc1`, the max response runs as follows: under setting [1], 78.2%; under setting [4], 107%. The concentration at half-maximal activity (AC50) was 25100 nM [rising, partial curve] under setting [2] and 28200 nM [rising, partial curve] under setting [3].

On to `COc1ccccc1-c1nc(NCCc2cnc[nH]2)c2ccccc2n1`, for which the max response by setting is: under setting [1], 34.7%; under setting [4], 41.9%. The half-maximal activity concentration (AC50) under setting [2] was 2820 nM [rising, full curve, poor fit] and the AC50 under setting [3] is 2240 nM [rising, full curve, poor fit].

For the compound `COc1ncc2ncc(=O)n(Cc3ccc(F)cc3)c2n1`, the max response turned out to be 23.4% under setting [1] and 32.5% under setting [4]. For the same compound, the concentration at half-maximal activity (AC50) runs as follows: under setting [2], 5.62 nM [rising, full curve, poor fit]; under setting [3], 5.62 nM [rising, full curve, poor fit].

`CNc1ccnc(-c2ccccc2C)n1`: the max response under setting [1] was 32.6% and the max response under setting [4] came out at 40.8%. The AC50 by setting is: under setting [2], 8910 nM [rising, full curve, poor fit]; under setting [3], 8910 nM [rising, partial curve, poor fit].

Take `Cn1cnc2c(NCc3ccccc3)nc(NCCO)nc21`: the max response runs as follows: under setting [1], 90%; under setting [4], 111%. For the same compound, the concentration at half-maximal activity (AC50) is, setting by setting: under setting [2], 2240 nM [rising, full curve]; under setting [3], 2240 nM [rising, full curve].

For the compound `COc1ccc(-c2nc3cnc(OC)nc3n(Cc3ccc(F)cc3)c2=O)cc1`, the max response reads like this: under setting [1], 24.5%; under setting [4], 31.5%. Besides, the AC50 under setting [2] is 39.8 nM [rising, full curve] and the concentration at half-maximal activity (AC50) under setting [3] is 31.6 nM [rising, full curve, poor fit].

For `COCCn1c(=O)c(-c2cccs2)nc2cnc(N3CCNCC3)nc21`, the max response is, setting by setting: under setting [1], 40.1%; under setting [4], 47.7%. For the same compound, the half-maximal activity concentration (AC50) runs as follows: under setting [2], 7080 nM [rising, full curve]; under setting [3], 4470 nM [rising, full curve].

With `CN(C)C(=O)c1ccc(-c2cncnc2NCc2ccccc2)cc1`, the max response amounted to 24.2% under setting [1] and 30.9% under setting [4]. The AC50 is 4470 nM [rising, single point] under setting [2] and 7080 nM [rising, single point] under setting [3].

As for `Cc1cnc(CNc2cc(-c3cccc(C#N)c3)ncn2)cn1`, the max response by setting is: under setting [1], 37.5%; under setting [4], 43.8%. The AC50 reads like this: under setting [2], 1580 nM [rising, full curve]; under setting [3], 1580 nM [rising, full curve].

Turning to `COc1ccc(-c2nc3cnc(N(C)C)nc3n(CCc3ccccc3)c2=O)cc1`, the max response stood at 15.1% under setting [1] and 17.5% under setting [4]. Also, the AC50 under setting [2] was 224 nM [rising, full curve] and the half-maximal activity concentration (AC50) under setting [3] was 178 nM [rising, full curve].

Take `CCCCC(CC)CN=C(N)NC(N)=NCCCCCCN=C(N)NC(N)=NCC(CC)CCCC` (stereo unspecified): the max response is, setting by setting: under setting [1], -92.9%; under setting [4], -97%. The half-maximal activity concentration (AC50) under setting [2] was 31600 nM [falling, partial curve] and the half-maximal activity concentration (AC50) under setting [3] is 25100 nM [falling, partial curve].

For the compound `Cc1nc2cnc(Oc3cccc(Cl)c3)nc2n(C[C@H]2CCCO2)c1=O`, the max response runs as follows: under setting [1], -2.05%; under setting [4], -0.119%. For the same compound, the half-maximal activity concentration (AC50) is 4470 nM [rising, partial curve, poor fit] under setting [2] and 1780 nM [rising, partial curve] under setting [3].
